Test results taken from PMC6156606.
No constants are given. Whether binding was seen depends on the method and setting. In cells and extracts the contact can be indirect. Some entries that bind do so weakly or less than the wild type. For some of these results: Where a sequence is shown, tags or fusion partners need not be part of it. One block for each molecule: values may come before it.

By UniProt entry, the sequences of proteins in these tests, tags left out.
UniProt Q9UI95: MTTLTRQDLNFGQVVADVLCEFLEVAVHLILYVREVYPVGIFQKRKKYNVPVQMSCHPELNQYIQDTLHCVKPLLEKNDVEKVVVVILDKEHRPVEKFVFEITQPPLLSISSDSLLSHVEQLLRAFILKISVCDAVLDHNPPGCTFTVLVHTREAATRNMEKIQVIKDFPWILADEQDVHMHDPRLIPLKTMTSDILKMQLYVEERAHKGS
UniProt Q5UIP0: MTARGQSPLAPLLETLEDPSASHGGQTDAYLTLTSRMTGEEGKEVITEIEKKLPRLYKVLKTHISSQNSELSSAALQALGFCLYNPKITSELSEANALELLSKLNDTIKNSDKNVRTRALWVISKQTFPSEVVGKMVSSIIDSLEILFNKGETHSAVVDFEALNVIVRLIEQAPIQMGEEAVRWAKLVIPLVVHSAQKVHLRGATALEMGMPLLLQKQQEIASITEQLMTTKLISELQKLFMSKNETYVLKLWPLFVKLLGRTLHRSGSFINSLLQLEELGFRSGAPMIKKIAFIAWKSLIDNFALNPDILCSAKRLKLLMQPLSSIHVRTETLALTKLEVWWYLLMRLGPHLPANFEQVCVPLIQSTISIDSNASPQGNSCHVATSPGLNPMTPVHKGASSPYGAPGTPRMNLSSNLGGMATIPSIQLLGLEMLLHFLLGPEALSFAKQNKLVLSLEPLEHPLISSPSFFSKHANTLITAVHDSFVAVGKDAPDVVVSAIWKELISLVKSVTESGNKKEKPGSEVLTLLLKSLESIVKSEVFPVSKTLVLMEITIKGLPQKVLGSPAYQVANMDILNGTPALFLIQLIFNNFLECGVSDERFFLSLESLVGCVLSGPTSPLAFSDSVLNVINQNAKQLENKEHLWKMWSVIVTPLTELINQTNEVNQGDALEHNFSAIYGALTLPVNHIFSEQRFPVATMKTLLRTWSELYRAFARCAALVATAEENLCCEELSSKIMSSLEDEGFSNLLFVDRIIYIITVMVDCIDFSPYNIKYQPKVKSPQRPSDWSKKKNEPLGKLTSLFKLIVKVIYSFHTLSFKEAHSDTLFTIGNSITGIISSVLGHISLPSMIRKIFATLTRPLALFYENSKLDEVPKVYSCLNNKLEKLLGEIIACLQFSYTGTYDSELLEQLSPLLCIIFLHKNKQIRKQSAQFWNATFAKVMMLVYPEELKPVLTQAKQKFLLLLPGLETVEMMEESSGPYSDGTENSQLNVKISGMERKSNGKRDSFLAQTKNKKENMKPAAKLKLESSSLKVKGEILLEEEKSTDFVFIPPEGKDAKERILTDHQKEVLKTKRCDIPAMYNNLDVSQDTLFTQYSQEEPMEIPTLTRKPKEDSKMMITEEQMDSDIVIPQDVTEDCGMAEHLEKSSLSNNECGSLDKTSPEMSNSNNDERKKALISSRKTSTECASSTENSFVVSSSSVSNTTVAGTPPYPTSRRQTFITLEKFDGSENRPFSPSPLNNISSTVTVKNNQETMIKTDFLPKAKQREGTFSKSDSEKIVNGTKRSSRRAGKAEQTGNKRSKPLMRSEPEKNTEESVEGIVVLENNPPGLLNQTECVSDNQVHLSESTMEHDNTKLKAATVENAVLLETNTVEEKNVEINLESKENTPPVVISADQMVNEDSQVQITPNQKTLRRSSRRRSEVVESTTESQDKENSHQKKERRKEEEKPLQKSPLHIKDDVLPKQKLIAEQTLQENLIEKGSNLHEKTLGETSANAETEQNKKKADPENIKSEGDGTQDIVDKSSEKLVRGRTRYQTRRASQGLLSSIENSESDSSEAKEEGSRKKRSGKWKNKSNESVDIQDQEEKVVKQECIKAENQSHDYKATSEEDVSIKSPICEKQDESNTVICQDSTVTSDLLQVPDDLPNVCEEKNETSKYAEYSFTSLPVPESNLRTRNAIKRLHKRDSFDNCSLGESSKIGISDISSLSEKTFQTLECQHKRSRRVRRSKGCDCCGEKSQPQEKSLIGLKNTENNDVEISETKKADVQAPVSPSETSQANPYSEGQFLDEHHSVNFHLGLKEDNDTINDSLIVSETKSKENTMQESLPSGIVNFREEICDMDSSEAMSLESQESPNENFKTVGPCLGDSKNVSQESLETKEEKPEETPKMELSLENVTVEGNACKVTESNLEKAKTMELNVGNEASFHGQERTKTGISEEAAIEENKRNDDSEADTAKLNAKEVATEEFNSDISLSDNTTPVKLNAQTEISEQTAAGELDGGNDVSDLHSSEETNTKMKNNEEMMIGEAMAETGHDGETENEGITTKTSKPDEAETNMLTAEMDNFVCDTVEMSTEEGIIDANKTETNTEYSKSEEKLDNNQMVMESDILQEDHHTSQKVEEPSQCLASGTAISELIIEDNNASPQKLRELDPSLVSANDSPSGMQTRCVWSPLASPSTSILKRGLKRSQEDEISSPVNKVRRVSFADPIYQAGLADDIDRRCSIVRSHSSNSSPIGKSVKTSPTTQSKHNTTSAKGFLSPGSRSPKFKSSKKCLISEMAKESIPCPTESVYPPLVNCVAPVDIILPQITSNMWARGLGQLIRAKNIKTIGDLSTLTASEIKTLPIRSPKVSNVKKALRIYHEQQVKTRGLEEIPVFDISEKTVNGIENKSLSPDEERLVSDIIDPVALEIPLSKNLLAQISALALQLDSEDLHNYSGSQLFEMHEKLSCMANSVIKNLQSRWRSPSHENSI

Legend:
MBP–FAM35A_RBD (human) = target: T1, MBP–FAM35A_RBD (human) (UniProt Q86V20); test: pull-down; MBP–FAM35A_RBD expressed in HEK293 suspension cells; NTEN lysate on amylose resin 4 h at 4 °C; eluted with maltose
T1 sequence: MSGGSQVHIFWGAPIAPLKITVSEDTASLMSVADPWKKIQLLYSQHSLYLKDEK

[1] = target: T2, FLAG-tagged C20ORF196 (human) (UniProt Q8IYI0); test: co-IP; FLAG-tagged bait transiently expressed in HEK293 suspension cells; anti-Flag M2 agarose; immunoblot of the eluate; IPs with or without 100 μg/ml EtBr
T2 sequence: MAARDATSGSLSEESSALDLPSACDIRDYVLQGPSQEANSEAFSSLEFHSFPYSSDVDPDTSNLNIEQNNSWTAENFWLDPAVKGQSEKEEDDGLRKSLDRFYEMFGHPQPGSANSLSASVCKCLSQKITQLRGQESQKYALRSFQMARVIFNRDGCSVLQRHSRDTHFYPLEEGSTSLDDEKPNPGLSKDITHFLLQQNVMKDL

[2] = target: T3, FLAG-tagged FAM35A (human) (UniProt Q86V20); test: as above
T3 sequence: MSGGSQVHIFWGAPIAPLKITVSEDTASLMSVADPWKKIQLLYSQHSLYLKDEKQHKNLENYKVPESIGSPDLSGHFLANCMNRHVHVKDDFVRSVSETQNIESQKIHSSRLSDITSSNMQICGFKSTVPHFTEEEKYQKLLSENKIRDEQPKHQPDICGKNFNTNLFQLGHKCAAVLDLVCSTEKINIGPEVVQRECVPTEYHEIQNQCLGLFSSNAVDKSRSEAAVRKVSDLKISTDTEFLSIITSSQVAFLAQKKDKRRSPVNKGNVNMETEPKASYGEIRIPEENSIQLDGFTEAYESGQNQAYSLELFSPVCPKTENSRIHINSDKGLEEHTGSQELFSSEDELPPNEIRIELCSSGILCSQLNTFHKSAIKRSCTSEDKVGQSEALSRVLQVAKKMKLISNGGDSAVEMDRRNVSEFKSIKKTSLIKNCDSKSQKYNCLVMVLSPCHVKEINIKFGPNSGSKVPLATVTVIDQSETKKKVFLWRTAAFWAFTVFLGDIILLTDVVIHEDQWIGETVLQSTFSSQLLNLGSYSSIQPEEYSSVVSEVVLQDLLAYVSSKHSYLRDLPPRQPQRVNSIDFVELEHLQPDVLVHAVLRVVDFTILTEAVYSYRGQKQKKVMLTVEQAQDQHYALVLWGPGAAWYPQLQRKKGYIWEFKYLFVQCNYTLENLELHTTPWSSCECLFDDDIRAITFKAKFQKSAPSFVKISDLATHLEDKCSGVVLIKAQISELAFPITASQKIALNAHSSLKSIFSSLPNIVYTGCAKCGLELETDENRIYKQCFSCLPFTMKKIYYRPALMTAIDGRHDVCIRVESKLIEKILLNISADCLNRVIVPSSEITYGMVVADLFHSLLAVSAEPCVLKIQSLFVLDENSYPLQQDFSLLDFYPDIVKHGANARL

FLAG-REV7 (human) = FLAG-REV7 (human) (UniProt Q9UI95); test: as above
MBP–FAM35A (human) = target: T4, MBP–FAM35A (human) (UniProt Q86V20); test: pull-down; MBP- and GST-pulldown with recombinant proteins; bait detected by Coomassie blue staining, prey by immunoblotting
T4 sequence: T3 sequence

GST–REV7 (human) = GST–REV7 (human) (UniProt Q9UI95); test: as above

binding (MBP–FAM35A_RBD (human)): binds | binding [1]: binds | binding [2]: binds
Molecule: REV7 (from UniProt Q9UI95 1-211)

binding (FLAG-REV7 (human)): binds | binding [1]: binds | binding [2]: binds
Molecule: RIF1 (from UniProt Q5UIP0 1-2472)

binding (MBP–FAM35A (human)): binds
Molecule: REV7 (recombinant) (from UniProt Q9UI95 1-211)

More lines, now with the values behind:

B1: C20ORF196 (protein, UniProt Q8IYI0 1-205)
chain: T2 sequence
binding (FLAG-REV7 (human)): binds | binding [2]: binds

B2: C20ORF196 (recombinant) (protein, UniProt Q8IYI0 1-205)
chain: T2 sequence
binding (GST–REV7 (human)): binds | binding (MBP–FAM35A (human)): binds

B3: FAM35A (protein, UniProt Q86V20-2 1-904)
chain: T3 sequence
binding (FLAG-REV7 (human)): binds | binding [1]: binds

B4: POLD3 (protein, UniProt Q15054 1-466)
chain: MADQLYLENIDEFVTDQNKIVTYKWLSYTLGVHVNQAKQMLYDYVERKRKENSGAQLHVTYLVSGSLIQNGHSCHKVAVVREDKLEAVKSKLAVTASIHVYSIQKAMLKDSGPLFNTDYDILKSNLQNCSKFSAIQCAAAVPRAPAESSSSSKKFEQSHLHMSSETQANNELTTNGHGPPASKQVSQQPKGIMGMFASKAAAKTQETNKETKTEAKEVTNASAAGNKAPGKGNMMSNFFGKAAMNKFKVNLDSEQAVKEEKIVEQPTVSVTEPKLATPAGLKKSSKKAEPVKVLQKEKKRGKRVALSDDETKETENMRKKRRRIKLPESDSSEDEVFPDSPGAYEAESPSPPPPPSPPLEPVPKTEPEPPSVKSSSGENKRKRKRVLKSKTYLDGEGCIVTEKVYESESCTDSEEELNMKTSSVHRPPAMTVKKEPREERKGPKKGTAALGKANRQVSITGFFQRK
binding (FLAG-REV7 (human)): binds | binding [1]: no binding | binding [2]: no binding
